Measurements from patent US11178870B2 (priority 2017, dated 2021).

Tests used:
[1] = system: Magnaporthe grisea; assay type: in vivo; conditions: class of control value, Table 7
[2] = system: Colletotrichum orbiculare; conditions: 250 ppm spray, 2.5 ml/pot; investigated 6 to 10 days after inoculation
[3] = system: Phytophthora infestans; assay type: in vivo; conditions: class of control value, Table 7

SMILES	Test A control value (blast on rice) [1]	Test H control value (anthracnose on cucumber) [2]	Test F control value (late blight on tomato) [3]
CCn1c(-c2ccccc2C(F)(F)F)c(-n2ncc(C)c2Cl)cc(Cl)c1=O [Compound 375]	H (H shows the control value more than 50%)	H (H shows the control value more than 50%)	L (L shows the control value of 50% or less)
CCn1c(-c2c(F)cccc2Cl)c(-n2cc(F)cn2)cc(Br)c1=O [Compound 380]	H (H shows the control value more than 50%)	H (H shows the control value more than 50%)	L (L shows the control value of 50% or less)
CCn1c(-c2ccccc2C#N)c(-n2cc(C)cn2)cc(Br)c1=O [Compound 471]	L (L shows the control value of 50% or less)	L (L shows the control value of 50% or less)	L (L shows the control value of 50% or less)
CCn1c(-c2ccc(OC)cc2Cl)c(-c2ccsc2Cl)cc(Cl)c1=O [Compound 502]	H (H shows the control value more than 50%)	H (H shows the control value more than 50%)	L (L shows the control value of 50% or less)
Cc1cnn(-c2ccc(=O)n(C)c2-c2ccc(F)cc2Cl)c1 [Compound 474]	L (L shows the control value of 50% or less)	L (L shows the control value of 50% or less)	L (L shows the control value of 50% or less)
Cc1cnn(-c2cc(Br)c(=O)n(C)c2-c2ccc(F)cc2C)c1 [Compound 513]	L (L shows the control value of 50% or less)	L (L shows the control value of 50% or less)	L (L shows the control value of 50% or less)
Cn1c(-c2c(F)cccc2Cl)c(-n2cc(F)cn2)cc(Cl)c1=O [Compound 509]	L (L shows the control value of 50% or less)	H (H shows the control value more than 50%)	L (L shows the control value of 50% or less)
Cc1cnn(-c2ccc(=O)n(C)c2-c2ccc(F)cc2F)c1 [Compound 406]	L (L shows the control value of 50% or less)	L (L shows the control value of 50% or less)	L (L shows the control value of 50% or less)
